Measured values taken from the supplement of paper PMC8728848.
The list shows a part of the results.

Key:
Experiment in all cases: glycan array binding signal (z-score within array); higher = stronger binding
Details in all cases: glycan notation: IUPAC condensed, linker removed
Gal6S(b1-4)Glc6S = target: Gal6S(b1-4)Glc6S
Outline: (§1)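 Arrays were curated from the Consortium for Functional Glycomics database, 3228 in total, and kept only where the protein sequence was available. Binding is expressed as a within-array Z-score. This score was averaged across arrays of the same protein sequence at different concentrations or buffers and across linkers, and negative values can be read as non-binding.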

Gal6S(b1-4)GlcNAc = target: Gal6S(b1-4)GlcNAc
Outline: as §1

Gal6S(b1-4)GlcNAc6S = target: Gal6S(b1-4)GlcNAc6S
Outline: as §1

GalNAc(a1-3)Gal = target: GalNAc(a1-3)Gal
Outline: as §1

GalNAc(a1-3)GalNAc = target: GalNAc(a1-3)GalNAc
Outline: as §1

[1] = target: GalNAc(a1-3)GalNAc(a1-3)Gal(a1-4)Gal(b1-4)GlcNAc
Outline: as §1

[2] = target: GalNAc(a1-3)GalNAc(b1-3)Gal(a1-4)Gal(b1-4)Glc
Outline: as §1

GalNAc(b1-3)Gal = target: GalNAc(b1-3)Gal
Outline: as §1

[3] = target: GalNAc(b1-3)Gal(a1-4)Gal(b1-4)GlcNAc
Outline: as §1

[4] = target: GalNAc(b1-3)Gal(a1-4)Gal(b1-4)GlcNAc(b1-3)Gal(b1-4)Glc
Outline: as §1

[5] = target: GalNAc(b1-3)Gal(a1-6)Gal(b1-4)Glc
Outline: as §1

GalNAc(b1-3)GalNAc = target: GalNAc(b1-3)GalNAc
Outline: as §1

GalNAc(b1-4)Gal(b1-4)Glc = target: GalNAc(b1-4)Gal(b1-4)Glc
Outline: as §1

GalNAc(b1-4)GlcNAc = target: GalNAc(b1-4)GlcNAc
Outline: as §1

[6] = target: GalNAc(b1-4)GlcNAc(b1-2)Man(a1-3)[GalNAc(b1-4)GlcNAc(b1-2)Man(a1-6)]Man(b1-4)GlcNAc(b1-4)GlcNAc
Outline: as §1

GalNAc(b1-6)GalNAc = target: GalNAc(b1-6)GalNAc
Outline: as §1

Glc(a1-4)Glc = target: Glc(a1-4)Glc
Outline: as §1

[7] = target: Glc(a1-4)Glc(a1-4)Glc(a1-4)Glc
Outline: as §1

Glc(a1-6)Glc(a1-6)Glc = target: Glc(a1-6)Glc(a1-6)Glc
Outline: as §1

[8] = target: Glc(a1-6)Glc(a1-6)Glc(a1-6)Glc
Outline: as §1

Glc(b1-4)Glc = target: Glc(b1-4)Glc
Outline: as §1

Glc(b1-6)Glc = target: Glc(b1-6)Glc
Outline: as §1

GlcA(b1-3)Gal = target: GlcA(b1-3)Gal
Outline: as §1

GlcA(b1-3)GlcNAc = target: GlcA(b1-3)GlcNAc
Outline: as §1

GlcA(b1-6)Gal = target: GlcA(b1-6)Gal
Outline: as §1

[9] = target: GlcNAc(a1-3)Gal(b1-4)GlcNAc
Outline: as §1

[10] = target: GlcNAc(a1-4)Gal(b1-3)GlcNAc
Outline: as §1

[11] = target: GlcNAc(a1-4)Gal(b1-4)GalNAc
Outline: as §1

[12] = target: GlcNAc(a1-4)Gal(b1-4)GlcNAc
Outline: as §1

[13] = target: GlcNAc(a1-4)Gal(b1-4)GlcNAc(b1-3)Gal(b1-4)Glc
Outline: as §1

[14] = target: GlcNAc(a1-4)Gal(b1-4)GlcNAc(b1-3)Gal(b1-4)GlcNAc
Outline: as §1

[15] = target: GlcNAc(a1-4)Gal(b1-4)GlcNAc(b1-3)Gal(b1-4)GlcNAc(b1-3)Gal(b1-4)GlcNAc
Outline: as §1

[16] = target: GlcNAc(a1-4)Gal(b1-4)GlcNAc(b1-3)Gal(b1-4)[Fuc(a1-3)]GlcNAc(b1-3)Gal(b1-4)[Fuc(a1-3)]GlcNAc
Outline: as §1

[17] = target: GlcNAc(a1-6)Gal(b1-4)GlcNAc
Outline: as §1

[18] = target: GlcNAc(b1-2)Gal(b1-3)GalNAc
Outline: as §1

[19] = target: GlcNAc(b1-2)Man(a1-3)[GlcNAc(b1-2)Man(a1-6)]Man(b1-4)GlcNAc(b1-4)GlcNAc
Outline: as §1

[20] = target: GlcNAc(b1-2)Man(a1-3)[GlcNAc(b1-2)Man(a1-6)]Man(b1-4)GlcNAc(b1-4)[Fuc(a1-6)]GlcNAc
Outline: as §1

[21] = target: GlcNAc(b1-2)Man(a1-3)[GlcNAc(b1-4)][GlcNAc(b1-2)Man(a1-6)]Man(b1-4)GlcNAc(b1-4)GlcNAc
Outline: as §1

[22] = target: GlcNAc(b1-2)[GlcNAc(b1-4)]Man(a1-3)[GlcNAc(b1-2)Man(a1-6)]Man(b1-4)GlcNAc(b1-4)GlcNAc
Outline: as §1

[23] = target: GlcNAc(b1-2)[GlcNAc(b1-4)]Man(a1-3)[GlcNAc(b1-4)][GlcNAc(b1-2)Man(a1-6)]Man(b1-4)GlcNAc(b1-4)GlcNAc
Outline: as §1

[24] = target: GlcNAc(b1-2)[GlcNAc(b1-4)]Man(a1-3)[GlcNAc(b1-4)][GlcNAc(b1-2)[GlcNAc(b1-6)]Man(a1-6)]Man(b1-4)GlcNAc(b1-4)GlcNAc
Outline: as §1

[25] = target: GlcNAc(b1-2)[GlcNAc(b1-6)]Man(a1-6)[GlcNAc(b1-2)Man(a1-3)]Man(b1-4)GlcNAc(b1-4)GlcNAc
Outline: as §1

[26] = target: GlcNAc(b1-2)[GlcNAc(b1-6)]Man(a1-6)[GlcNAc(b1-2)Man(a1-3)][GlcNAc(b1-4)]Man(b1-4)GlcNAc(b1-4)GlcNAc
Outline: as §1

GlcNAc(b1-3)Gal = target: GlcNAc(b1-3)Gal
Outline: as §1

[27] = target: GlcNAc(b1-3)Gal(b1-3)GalNAc
Outline: as §1

B1: PpFlo3 (Pichia pastoris) (protein)
chain: MGSSHHHHHHSSGLVPRGSHMQESGNGTTSDTAYACDIGATPFDGFNATIYQYQASDDNSIQDPVFMSTGYLQRNQLHSTTGVTNPGFNIFTAGVATTTLYGIPNVNYQNMLLELKGYFRADASGNYGLSLRNIDDSAILFFGRETAFECCNENLIPLDEAPTDYSLFTIKEGEASTNPDSYTYTQYLEAGRYYPVRTFFANIRTRAVFNFTMTLPDGSELTDFQNYIFQFGALNQ
glycan array binding signal (z-score) (Gal6S(b1-4)Glc6S): -0.258
glycan array binding signal (z-score) (Gal6S(b1-4)GlcNAc): -0.262
glycan array binding signal (z-score) (Gal6S(b1-4)GlcNAc6S): -0.234
glycan array binding signal (z-score) (GalNAc(a1-3)Gal): -0.274
glycan array binding signal (z-score) (GalNAc(a1-3)GalNAc): -0.277
glycan array binding signal (z-score) [1]: -0.284
glycan array binding signal (z-score) [2]: -0.274
glycan array binding signal (z-score) (GalNAc(b1-3)Gal): -0.242
glycan array binding signal (z-score) [3]: -0.188
glycan array binding signal (z-score) [4]: -0.237
glycan array binding signal (z-score) [5]: -0.259
glycan array binding signal (z-score) (GalNAc(b1-3)GalNAc): 5.1
glycan array binding signal (z-score) (GalNAc(b1-4)Gal(b1-4)Glc): -0.272
glycan array binding signal (z-score) (GalNAc(b1-4)GlcNAc): -0.114
glycan array binding signal (z-score) [6]: -0.184
glycan array binding signal (z-score) (GalNAc(b1-6)GalNAc): -0.288
glycan array binding signal (z-score) (Glc(a1-4)Glc): -0.268
glycan array binding signal (z-score) [7]: -0.242
glycan array binding signal (z-score) (Glc(a1-6)Glc(a1-6)Glc): -0.284
glycan array binding signal (z-score) [8]: -0.292
glycan array binding signal (z-score) (Glc(b1-4)Glc): -0.246
glycan array binding signal (z-score) (Glc(b1-6)Glc): -0.279
glycan array binding signal (z-score) (GlcA(b1-3)Gal): -0.246
glycan array binding signal (z-score) (GlcA(b1-3)GlcNAc): -0.282
glycan array binding signal (z-score) (GlcA(b1-6)Gal): -0.288
glycan array binding signal (z-score) [9]: -0.288
glycan array binding signal (z-score) [10]: -0.302
glycan array binding signal (z-score) [11]: -0.243
glycan array binding signal (z-score) [12]: -0.268
glycan array binding signal (z-score) [13]: -0.243
glycan array binding signal (z-score) [14]: -0.155
glycan array binding signal (z-score) [15]: -0.283
glycan array binding signal (z-score) [16]: -0.296
glycan array binding signal (z-score) [17]: 0.341
glycan array binding signal (z-score) [18]: -0.287
glycan array binding signal (z-score) [19]: 3.52
glycan array binding signal (z-score) [20]: -0.28
glycan array binding signal (z-score) [21]: 2.27
glycan array binding signal (z-score) [22]: 4.67
glycan array binding signal (z-score) [23]: 2.14
glycan array binding signal (z-score) [24]: 1.25
glycan array binding signal (z-score) [25]: -0.22
glycan array binding signal (z-score) [26]: 1.07
glycan array binding signal (z-score) (GlcNAc(b1-3)Gal): -0.276
glycan array binding signal (z-score) [27]: -0.273
